{
  "source": "PubChem BioAssay AID1347165",
  "about": "(National Center for Advancing Translational Sciences (NCATS), 2019)",
  "note": "Screen size: about 220,000 compounds; about 5,700 (2.6%) were called active. Inconclusive results, whose numbers are uncertain, are shown with a selection of clear calls. Calls come from the whole dose curve; as a rule, active = well fitted inhibition curve with a large enough effect; inconclusive = small, poorly fitted or top-dose-only effect; inactive = no such curve, though single readings can be large or run the other way. Potencies of inconclusive entries are doubtful fits and often do not repeat. Potency is the fitted concentration of half-maximal effect; tags give direction and shape of the fitted curve.",
  "data": [
    {"molecular_target": "Lysine-specific demethylase 5B (Homo sapiens) (UniProt Q9UGL1)", "sequence (Q9UGL1 whole entry, looked up, the tested form may be a part)": "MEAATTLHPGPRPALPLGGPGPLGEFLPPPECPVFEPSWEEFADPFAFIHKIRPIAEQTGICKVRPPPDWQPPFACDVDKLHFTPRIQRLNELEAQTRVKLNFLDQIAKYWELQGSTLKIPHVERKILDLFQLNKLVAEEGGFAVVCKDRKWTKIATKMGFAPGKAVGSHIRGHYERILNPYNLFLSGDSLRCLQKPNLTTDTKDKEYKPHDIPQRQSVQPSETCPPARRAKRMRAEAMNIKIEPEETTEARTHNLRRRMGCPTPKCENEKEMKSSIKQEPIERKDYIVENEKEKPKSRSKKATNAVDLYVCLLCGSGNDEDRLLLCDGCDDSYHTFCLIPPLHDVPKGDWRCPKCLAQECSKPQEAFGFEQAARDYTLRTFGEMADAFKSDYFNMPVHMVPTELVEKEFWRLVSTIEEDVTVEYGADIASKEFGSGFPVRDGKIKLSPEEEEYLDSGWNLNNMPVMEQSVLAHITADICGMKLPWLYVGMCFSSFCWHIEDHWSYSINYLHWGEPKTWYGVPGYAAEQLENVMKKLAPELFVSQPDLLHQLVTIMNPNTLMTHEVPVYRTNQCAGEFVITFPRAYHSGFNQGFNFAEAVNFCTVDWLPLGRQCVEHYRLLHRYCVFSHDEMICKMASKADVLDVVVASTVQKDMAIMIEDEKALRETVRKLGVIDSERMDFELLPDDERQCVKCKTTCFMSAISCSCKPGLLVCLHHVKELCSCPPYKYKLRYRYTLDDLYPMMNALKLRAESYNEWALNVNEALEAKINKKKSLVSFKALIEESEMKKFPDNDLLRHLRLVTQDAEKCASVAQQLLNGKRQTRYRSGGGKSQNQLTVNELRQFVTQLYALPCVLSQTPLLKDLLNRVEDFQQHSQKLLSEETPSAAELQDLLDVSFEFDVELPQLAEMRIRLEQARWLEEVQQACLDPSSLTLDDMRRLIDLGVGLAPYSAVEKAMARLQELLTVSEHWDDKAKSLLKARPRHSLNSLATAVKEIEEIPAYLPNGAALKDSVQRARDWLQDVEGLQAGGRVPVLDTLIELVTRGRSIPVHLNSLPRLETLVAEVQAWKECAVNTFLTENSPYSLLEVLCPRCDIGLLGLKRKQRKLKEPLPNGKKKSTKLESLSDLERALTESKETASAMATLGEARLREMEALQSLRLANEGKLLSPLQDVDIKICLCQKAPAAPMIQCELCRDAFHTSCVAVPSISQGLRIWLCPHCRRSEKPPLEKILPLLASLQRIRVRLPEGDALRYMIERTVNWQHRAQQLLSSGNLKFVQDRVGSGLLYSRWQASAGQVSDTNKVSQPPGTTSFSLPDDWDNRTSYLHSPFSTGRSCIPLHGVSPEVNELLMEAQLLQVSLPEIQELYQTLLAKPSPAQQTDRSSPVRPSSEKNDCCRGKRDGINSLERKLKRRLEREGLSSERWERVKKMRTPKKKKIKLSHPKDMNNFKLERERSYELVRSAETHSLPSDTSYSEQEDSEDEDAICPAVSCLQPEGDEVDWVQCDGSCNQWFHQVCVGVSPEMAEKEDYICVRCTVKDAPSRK", "experiment": "Primary screen for KDM5B Histone Demethylases FDH-coupled qHTS; note: nearly all actives have a fitted effect of over 70% in size", "settings": "FDH-coupled NADH fluorescence (FDH is formaldehyde dehydrogenase); series mostly up to 57.7 µM", "outline": "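Inhibition is measured as reduced NADH fluorescence generation from FDH coupling to formaldehyde release. Truncated KDM5BΔAP at 200 nM final acts on H3K4me3 peptide (12.5 µM in substrate mix) in pH 7.5 HEPES buffer with Tween-20, 30 min, room temperature.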", "values": [
      {"compound": "Nc1cc(N2CC[C@@H](N3CCN(CCc4ccccc4)CC3)[C@H](O)C2)nc(N)n1", "Potency": "active: 4.47 µM"},
      {"compound": "COc1ccc(C(=O)N2C[C@@H]3C[C@H](C2)c2ccc(-c4ccc5ccccc5c4)c(=O)n2C3)cc1", "Potency": "active: 28.2 µM"},
      {"compound": "Cn1ccnc1CN1C(=O)CO[C@H](c2ccc(NC(=O)CC(C)(C)C)cc2)[C@H]1CO", "Potency": "inactive"},
      {"compound": "O=C(NCc1ccc(F)cc1)c1nc(-c2cccnc2)c2ccccn12", "Potency": "active: 112 µM"},
      {"compound": "Cc1ccc(F)c(C(=O)N[C@H](Cc2ccccc2)C2CC(O)C2)c1Cl", "note": "(stereo not given in full)", "Potency": "inactive"},
      {"compound": "Cc1cc(NC(=O)c2cc(-c3ccc(OC(C)C)cc3)nc3ccccc23)no1", "Potency": "inconclusive: 22.4 µM [inhibitor, partial curve, poor fit]"},
      {"compound": "CCOc1ccc(C2C(C#N)=C(SCC(=O)Nc3cccc(C)c3)NC3=C2C(=O)CCC3)cc1", "note": "(stereo not given)", "Potency": "inconclusive: 22.4 µM [inhibitor, single point]"},
      {"compound": "O=C(Nc1ccon1)c1cnc2n[nH]c(-c3ccccc3)c2n1", "Potency": "inactive"},
      {"compound": "CCCn1c(=O)n(CC(=O)Nc2ccc(Oc3ccccc3)cc2)c(=O)c2c1nc(C)n2CCOC", "Potency": "inactive"},
      {"compound": "CSc1cccc(Nc2cc(C(=O)NC3CCCCC3)c3ccccc3n2)c1", "Potency": "inconclusive: 35.5 µM [inhibitor, partial curve, poor fit]"},
      {"compound": "COc1cccc([S+](=O)([O-])N2CCC3(CC2)C(=O)Nc2ccccc23)c1", "Potency": "inactive"},
      {"compound": "CC(=O)N1CC2(CCN(C(=O)c3ccc(Cl)cc3)CC2)Cc2ccccc21", "Potency": "inconclusive: 79.4 µM [inhibitor, partial curve, poor fit]"},
      {"compound": "Nc1nccnc1C(=O)NCc1ccncc1", "Potency": "inconclusive: 25.1 µM [inhibitor, partial curve, poor fit]"},
      {"compound": "COc1ccc(-c2nc(CS(=O)CC(=O)NCC(OC)OC)c(C)o2)cc1OC", "note": "(stereo not given)", "Potency": "inconclusive: 14.1 µM [inhibitor, partial curve, poor fit]"},
      {"compound": "CCOc1ccccc1C(=O)N1CC(c2nnc(-c3ccncc3)o2)C2(CCOCC2)C1", "note": "(stereo not given)", "Potency": "inactive"},
      {"compound": "N#Cc1c2n(c(=O)n(CC(O)COc3ccccc3F)c1=O)CCC2", "note": "(stereo not given)", "Potency": "inactive"},
      {"compound": "CC(C)(C)C1CCc2c(sc(NC(=O)c3cc(-c4ccc(F)cc4)on3)c2C#N)C1", "note": "(stereo not given)", "Potency": "inconclusive: 2.51 µM [inhibitor, partial curve, poor fit]"},
      {"compound": "COc1ccc(-c2ccc3ccccc3n2)c(OC)c1OC", "Potency": "inconclusive: 15.8 µM [inhibitor, single point]"},
      {"compound": "CN(CCN(C)C(C)(C)C)C(=O)C(c1ccccc1)c1ccccc1", "Potency": "inconclusive: 10 µM [inhibitor, partial curve, poor fit]"},
      {"compound": "CCC1CC(=O)NC(SC)=C1C#N", "note": "(stereo not given)", "Potency": "inactive"},
      {"compound": "Cc1noc(-c2ccccc2Cl)c1C(=O)NCCc1cccs1", "Potency": "inactive"},
      {"compound": "Cc1nn2c(c1-c1ccccc1Oc1ccccc1)N(C(=O)COc1ccccc1)CCC2", "Potency": "inactive"},
      {"compound": "COc1ccc(-c2oc3ncn4nc(COc5ccc(Cl)cc5)nc4c3c2-c2ccc(OC)cc2)cc1", "Potency": "inconclusive: 11.2 µM [inhibitor, partial curve, poor fit]"},
      {"compound": "Cc1cc(=O)n(CC(=O)Nc2cccc(F)c2)c(N2CCc3ccccc3C2)n1", "Potency": "inconclusive: 11.2 µM [inhibitor, partial curve]"},
      {"compound": "Cc1cccn2c(=O)c3cc(C#N)c(=NC(=O)c4cccs4)n(CCCOC(C)C)c3nc12", "Potency": "inconclusive: 31.6 µM [inhibitor, partial curve, poor fit]"},
      {"compound": "O=C(NCCCN1CCCc2ccccc21)c1cccnc1N1CC2CC(C1)[C@H]1CCCC(=O)N1C2", "note": "(stereo not given in full)", "Potency": "active: 28.2 µM"},
      {"compound": "O=C(NCc1ccccc1)c1noc(-c2ccc3c(c2)OCO3)n1", "Potency": "inactive"},
      {"compound": "CN(Cc1ccc2c(c1)CCO2)C1CCc2nn(CC3CC3)c(=O)n2CC1", "note": "(stereo not given)", "Potency": "inactive"},
      {"compound": "CCc1ccc(CNC(=O)c2ccc(Cn3c(=O)c4cccn4c4cccnc43)cc2)cc1", "Potency": "inconclusive: 17.8 µM [inhibitor, partial curve, poor fit]"},
      {"compound": "CCCc1nnc(NC(=O)CSc2nnc3c4ccccc4n(CC)c3n2)s1", "Potency": "inconclusive: 17.8 µM [inhibitor, partial curve, poor fit]"},
      {"compound": "COC(=O)[C@@H]1Cc2ncn(Cc3ccc(Cl)cc3)c2CN1C(=O)c1ccc(C(F)(F)F)cc1", "Potency": "inconclusive: 17.8 µM [inhibitor, partial curve]"},
      {"compound": "COc1ccc(OC(=O)c2cn(-c3cccc(OC)c3)c(=O)c3ccccc23)cc1", "Potency": "inconclusive: 25.1 µM [inhibitor, single point]"},
      {"compound": "Cc1c(C(=O)N/N=C/c2ccccn2)nnn1-c1nonc1N", "Potency": "inconclusive: 31.6 µM [inhibitor, partial curve, poor fit]"},
      {"compound": "Cc1ccc2[nH]c(=O)c(CN(CC3CCCO3)S(=O)(=O)c3ccccc3)cc2c1", "note": "(stereo not given)", "Potency": "inconclusive: 12.6 µM [inhibitor, partial curve, poor fit]"},
      {"compound": "COc1ccc(C(=O)NCCC2CCN(C(=O)Nc3cc(F)cc(F)c3)CC2)cc1", "Potency": "inactive"},
      {"compound": "COc1ccc(/C=C(/C#N)c2nc3ccccc3[nH]2)cc1OC(F)F", "Potency": "inconclusive: 39.8 µM [inhibitor, single point]"},
      {"compound": "O=C(Nc1cccc2cccnc12)c1ccc(Cl)cc1Cl", "Potency": "inactive"},
      {"compound": "COc1ccc(CNC(=O)Cn2nc(C)c3sc(-c4ccccc4)nc3c2=O)cc1", "Potency": "inconclusive: 8.91 µM [inhibitor, partial curve, poor fit]"},
      {"compound": "c1ccc(Oc2ncnc3sc(-c4ccccc4)cc23)cc1", "Potency": "inconclusive: 14.1 µM [inhibitor, partial curve, poor fit]"},
      {"compound": "CCCC(=O)Nc1c(-c2cccc3ccccc23)c(=O)c2ccccc2n1C", "Potency": "inconclusive: 28.2 µM [inhibitor, partial curve, poor fit]"},
      {"compound": "CC(CCc1ccccc1)NC(=O)CSc1n[nH]c(-c2ccccc2Cl)n1", "note": "(stereo not given)", "Potency": "inactive"},
      {"compound": "COc1cc(NC(=O)c2cnc(NCc3ccc4c(c3)OCO4)nc2C)cc(OC)c1", "Potency": "inconclusive: 39.8 µM [inhibitor, single point]"},
      {"compound": "Cc1ccc(-n2nc(C)c([C@@H]3C=C[C@@H](NC(=O)Nc4ccc(Cl)cc4)C3)c2C)cc1Cl", "Potency": "inconclusive: 17.8 µM [inhibitor, partial curve]"},
      {"compound": "COc1nc2c(cc1CNC(=O)CCc1ccccn1)C(=O)N(C1CCCC1)C2", "Potency": "inconclusive: 15.8 µM [inhibitor, partial curve]"},
      {"compound": "CN(C)CCOC(=O)C12CC3CC(C1)CC(C(=O)OCCN(C)C)(C3)C2", "Potency": "inconclusive: 39.8 µM [inhibitor, single point]"},
      {"compound": "CCN1c2cc(C(=O)NC3CCCCCC3)ccc2C(=O)N2CCCCCC21", "note": "(stereo not given)", "Potency": "inconclusive: 22.4 µM [inhibitor, partial curve, poor fit]"},
      {"compound": "O=C(O)c1ccc(COc2cccc(/C=N/O)c2)cc1", "Potency": "inactive"},
      {"compound": "COC(=O)C1CN(Cc2ccc(OC)cc2)CCS(=O)(=O)N1Cc1cn(Cc2ccc(F)cc2)nn1", "note": "(stereo not given)", "Potency": "inconclusive: 25.1 µM [inhibitor, single point]"},
      {"compound": "Cc1nn(C)c2c1c(C(F)(F)F)cc(=O)n2CC(=O)Nc1ccc(F)cc1F", "Potency": "inconclusive: 2.51 µM [inhibitor, full curve, poor fit]"},
      {"compound": "Cc1nc2ccccc2nc1CN1C(=O)NC2(CCCCCC2)C1=O", "Potency": "inactive"},
      {"compound": "Cn1c(CNC(=O)C2CCN(C(=O)N3CC4CC(C3)[C@H]3CCCC(=O)N3C4)CC2)nc2ccccc21", "note": "(stereo not given in full)", "Potency": "inactive"},
      {"compound": "O=C(NNC(=S)NC(=O)c1ccc(F)cc1)c1ccc(Cl)cc1", "Potency": "inconclusive: 39.8 µM [inhibitor, single point]"},
      {"compound": "CCCC(=O)N1c2nc(-c3ccco3)nn2C2(CCCCC2)[C@@H]2CCCC[C@@H]21", "Potency": "inconclusive: 1.41 µM [inhibitor, full curve, poor fit]"},
      {"compound": "COc1ccc(CC2C(=O)Nc3ccc(Br)cc32)cc1", "note": "(stereo not given)", "Potency": "inactive"},
      {"compound": "CC(C)Oc1ccc(C(=O)NCCc2csc(-c3cccc(F)c3)n2)cc1", "Potency": "inconclusive: 28.2 µM [inhibitor, partial curve, poor fit]"},
      {"compound": "O=C(c1cc2ccccc2[nH]1)N1CCNc2cnc(Nc3ccccc3)nc2C1", "Potency": "inconclusive: 35.5 µM [inhibitor, partial curve, poor fit]"},
      {"compound": "Cc1ccc(S(=O)(=O)CCC(=O)c2ccc(F)cc2)cc1", "Potency": "inconclusive: 25.1 µM [inhibitor, partial curve, poor fit]"},
      {"compound": "CC1CCCCC1Nc1ncnc2c1CN(C1CCNCC1)C(=O)CN2C", "note": "(stereo not given)", "Potency": "inconclusive: 44.7 µM [inhibitor, partial curve, poor fit]"},
      {"compound": "CN(Cc1cccc(C(F)(F)F)c1)Cc1ccccc1OCC(=O)O", "Potency": "inconclusive: 14.1 µM [inhibitor, partial curve, poor fit]"},
      {"compound": "COc1ccc(-c2nc3cc(NC(C)=O)ccc3o2)cc1Cl", "Potency": "inconclusive: 2.51 µM [inhibitor, full curve, poor fit]"},
      {"compound": "O=C(c1ccc(Br)o1)N1N=C(c2ccc(Cl)cc2)CC1c1ccco1", "note": "(stereo not given)", "Potency": "inconclusive: 22.4 µM [inhibitor, single point]"},
      {"compound": "COC(=O)CNC(=O)C1CCCN1c1nc2ncccc2o1", "note": "(stereo not given)", "Potency": "inconclusive: 31.6 µM [inhibitor, single point]"},
      {"compound": "Cc1cc(NC(=O)c2ccc3c(c2)N(C)C2CCCCCN2C3=O)ccc1F", "note": "(stereo not given)", "Potency": "inconclusive: 25.1 µM [inhibitor, partial curve, poor fit]"},
      {"compound": "Cc1cc(SCC(=O)NC2CCS(=O)(=O)C2)nc2ccccc12", "note": "(stereo not given)", "Potency": "inactive"},
      {"compound": "c1ccc(-c2nnc3ccc(NC4CC4)nn23)nc1", "Potency": "inconclusive: 31.6 µM [inhibitor, partial curve, poor fit]"}
    ]}
  ]
}
